{"source": "PubChem BioAssay AID1768", "about": "(National Center for Advancing Translational Sciences (NCATS), 2009)", "note": "Among all 270,000 compounds or so, about 620 (0.23%) were called active. The inconclusive results got no clear call from the source; some entries with a clear call stand among them for comparison. The call rests on the fitted dose curve; in most records, active means well fitted inhibition curve with a large enough effect in the polarisation, with a control signal flat (not every such curve was filed as active); inconclusive means small, poorly fitted or top-dose-only effect, or effect the other way, or a change in a side signal; inactive means no such curve, though single readings can be large or run the other way; the % refers to the polarisation. A potency beside an inconclusive call is a rough fit, not a confirmed value. A note “side channel” means that the fit belongs to a control or component signal, not to the main read-out. Potency means the concentration at half of the fitted maximal effect; tags describe the fitted curve by direction and shape or compound fluorescence and quenching.", "data": [{"target": "Menin (Homo sapiens) (UniProt O00255)", "sequence (O00255 whole entry, looked up)": "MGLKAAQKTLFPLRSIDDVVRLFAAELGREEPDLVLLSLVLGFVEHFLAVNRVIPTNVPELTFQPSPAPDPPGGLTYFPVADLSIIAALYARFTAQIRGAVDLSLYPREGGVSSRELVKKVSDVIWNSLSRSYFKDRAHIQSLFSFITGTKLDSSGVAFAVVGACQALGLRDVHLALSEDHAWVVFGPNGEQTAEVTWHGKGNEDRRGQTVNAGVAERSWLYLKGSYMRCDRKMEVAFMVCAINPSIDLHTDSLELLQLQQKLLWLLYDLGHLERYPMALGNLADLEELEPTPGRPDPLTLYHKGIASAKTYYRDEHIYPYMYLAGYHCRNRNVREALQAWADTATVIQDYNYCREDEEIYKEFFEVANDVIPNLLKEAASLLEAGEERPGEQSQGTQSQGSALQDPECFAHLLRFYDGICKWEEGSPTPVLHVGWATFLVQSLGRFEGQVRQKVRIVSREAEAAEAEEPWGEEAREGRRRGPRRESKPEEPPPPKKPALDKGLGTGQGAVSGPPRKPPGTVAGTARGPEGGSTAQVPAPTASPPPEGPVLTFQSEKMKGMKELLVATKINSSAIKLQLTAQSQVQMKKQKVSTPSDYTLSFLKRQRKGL", "assay": "qHTS Assay for Inhibitors Targeting the Menin-MLL Interaction in MLL Related Leukemias: Competition With Texas Red Labeled MLL-derived Mutant Peptide", "conditions": "fluorescence polarization; series mostly up to 61.6 µM", "values": [{"smiles": "O=C(NCc1ccco1)c1ccccc1NS(=O)(=O)c1ccc(Br)s1", "Potency": "inconclusive: 28.2 µM [quencher, side channel, single point]"}, {"smiles": "C=CCn1c(SCC(=O)N2CC(=O)Nc3ccccc32)nc2scc(-c3cccs3)c2c1=O", "Potency": "inconclusive: 39.8 µM [inhibitor, single point]"}, {"smiles": "CCOC(=O)C1=C(N)Oc2cc(O)ccc2C1c1ccc([N+](=O)[O-])cc1", "note": "(configuration not stated)", "Potency": "inconclusive: 15.8 µM [quencher, side channel, partial curve]"}, {"smiles": "CC(=O)N(c1ccc(Cl)cc1)c1cn(C(C)=O)c2ccccc12", "Potency": "inconclusive: 22.4 µM [inhibitor, single point]"}, {"smiles": "Cc1ccc(Cn2c(N)c(S(=O)(=O)c3cccs3)c3nc4ccccc4nc32)cc1", "Potency": "inconclusive: 3.16 µM [inhibitor, full curve]"}, {"smiles": "CCOC(=O)c1cc(-c2ccc(/C=C3/C(=O)N(c4ccc(C(=O)O)cc4)N=C3C)o2)ccc1Cl", "Potency": "inconclusive: 25.1 µM [quencher, side channel, partial curve]"}, {"smiles": "CS(=O)(=O)N(CC(=O)NCC1CCCO1)c1cccc(Cl)c1", "note": "(configuration not stated)", "Potency": "inconclusive: 31.6 µM [quencher, side channel, partial curve]"}, {"smiles": "COc1cc2[nH]c(=S)nc(NCCCOC(C)C)c2cc1OC", "Potency": "inactive"}, {"smiles": "CCOC(=O)CCc1c(C)nc2c(c(C)nn2-c2ccccc2)c1C", "Potency": "inconclusive: 1 µM [inhibitor, full curve]"}, {"smiles": "Cc1nc2ccc(C(=O)Nc3cccc([N+](=O)[O-])c3)cc2s1", "Potency": "inconclusive: 35.5 µM [quencher, side channel, partial curve]"}, {"smiles": "CCOC(=O)c1cc(-c2ccc(Cl)cc2)nc2c1c(C)nn2CCC#N", "Potency": "inconclusive: 39.8 µM [inhibitor, partial curve]"}, {"smiles": "C#CCOCCOCCOCCNc1nc(N2CCOCC2)nc(N2CCN(C(=O)[C@H](Cc3cc4ccccc4[nH]3)n3cc([C@@H](N)CC(C)C)nn3)CC2)n1", "Potency": "inconclusive: 7.94 µM [fluorescent, side channel, partial curve]"}, {"smiles": "O=C(Nc1cccc(C(F)(F)F)c1)N(Cc1ccc(Cl)cc1)CC(O)C(F)(F)F", "note": "(configuration not stated)", "Potency": "inconclusive: 8.91 µM [quencher, side channel, partial curve]"}, {"smiles": "CCCCSc1nc2sc3c(c2c(=O)n1-c1ccccc1)CCN(C)C3", "Potency": "inconclusive: 6.31 µM [fluorescent, side channel, partial curve]"}, {"smiles": "CCOC(=O)c1c(NC(=S)Nc2ccccc2)sc2c1CCN(CCc1ccccc1)C2", "Potency": "inconclusive: 25.1 µM [fluorescent, side channel, single point]"}, {"smiles": "CCOC(=O)c1c(C)[nH]c(N=Nc2ccc(C)cc2C)c1C", "Potency": "inconclusive: 10 µM [quencher, side channel, partial curve]"}, {"smiles": "O=C(/C=C/c1ccc(-c2ccccc2[N+](=O)[O-])o1)c1ccc(Br)cc1", "Potency": "inconclusive: 14.1 µM [quencher, side channel, partial curve]"}, {"smiles": "NCC1CC2c3ccccc3C1c1ccccc12", "note": "(configuration not stated)", "Potency": "inconclusive: 6.31 µM [inhibitor, single point]"}, {"smiles": "CC(/C=C/c1ccco1)=N/NC(=O)Cc1cccs1", "Potency": "inconclusive: 39.8 µM [quencher, side channel, single point]"}, {"smiles": "Cc1nn(-c2ccc(C(=O)O)cc2)c(C)c1Cl", "Potency": "inconclusive: 10 µM [inhibitor, partial curve]"}, {"smiles": "Cc1nc(N)c(C#N)c(-c2ccccc2Cl)c1C", "Potency": "inactive"}, {"smiles": "O=C(Cc1ccc(S(=O)(=O)N2CCCCC2)s1)Nc1cccc2ccccc12", "Potency": "inconclusive: 31.6 µM [quencher, side channel, single point]"}, {"smiles": "COc1cc(/C=C2/SC(=S)N(Cc3ccccc3)C2=O)cc(Cl)c1O", "Potency": "inconclusive: 3.16 µM [fluorescent, side channel, full curve]"}, {"smiles": "CN(Cc1ccco1)c1ccnc(-c2ccoc2)n1", "Potency": "inconclusive: 31.6 µM [inhibitor, single point]"}, {"smiles": "O=C(CCc1nc2ccccc2c(=O)[nH]1)N1CCN(c2ccc(F)cc2)CC1", "Potency": "inconclusive: 25.1 µM [inhibitor, single point]"}, {"smiles": "NS(=O)(=O)c1ccc(NC(=O)c2cc(-c3cc(Cl)ccc3O)n[nH]2)cc1", "Potency": "inconclusive: 2.82 µM [quencher, side channel, partial curve]"}, {"smiles": "Cc1ccc(NC(=O)CCCNC(=O)c2ccc(Cl)cc2)c(O)c1", "Potency": "inconclusive: 22.4 µM [quencher, side channel, partial curve]"}, {"smiles": "CCCCN(CCCC)C(=O)c1cn(CC)c2cc(N3CCN(C)CC3)c(F)cc2c1=O", "Potency": "inconclusive: 15.8 µM [fluorescent, side channel, partial curve]"}, {"smiles": "Cc1cc(NC(=S)N(CCN2CCCCC2)Cc2ccco2)ccc1Cl", "Potency": "inconclusive: 10 µM [fluorescent, side channel, partial curve, poor fit]"}, {"smiles": "Nc1ccc(O)cc1C(=O)OCC(=O)c1ccc(C2CCCCC2)cc1", "Potency": "inconclusive: 28.2 µM [quencher, side channel, single point]"}, {"smiles": "COc1ccc(/C=C/c2nnc(NC(=O)COc3ccc(C)cc3)s2)cc1", "Potency": "inactive"}, {"smiles": "Cc1ccc(NC(=O)CSc2nc3nc(C)c(Br)cc3[nH]2)cc1F", "Potency": "inconclusive: 39.8 µM [fluorescent, side channel, single point]"}, {"smiles": "Cc1[nH]n(C2=NCCS2)c(=O)c1N=Nc1cccc(C(F)(F)F)c1", "Potency": "inconclusive: 12.6 µM [quencher, side channel, partial curve]"}, {"smiles": "C/C(=C\\C(=O)c1ccccc1)Nc1ccc(O)cc1", "Potency": "inconclusive: 25.1 µM [quencher, side channel, single point]"}, {"smiles": "Cc1cc2[nH]ncc2cc1NC(=S)NC(=O)c1ccccc1", "Potency": "inconclusive: 7.08 µM [inhibitor, single point]"}, {"smiles": "CCOC(=O)C1(CCCc2ccccc2)CCN(Cc2ccn[nH]2)CC1", "Potency": "inconclusive: 10 µM [fluorescent, side channel, partial curve]"}, {"smiles": "O=C(N/N=C/c1ccc([N+](=O)[O-])o1)c1cc(-c2ccncc2)nc2ccccc12", "Potency": "inconclusive: 28.2 µM [quencher, side channel, single point]"}, {"smiles": "COc1ccc(-c2noc(C3CCCN(C(=O)c4ccc(F)cc4)C3)n2)cc1", "note": "(configuration not stated)", "Potency": "inconclusive: 12.6 µM [fluorescent, side channel, partial curve]"}, {"smiles": "CCOc1ccccc1NC(=O)Cn1nnc(C(=O)NCc2ccc3c(c2)OCO3)c1N", "Potency": "inconclusive: 22.4 µM [fluorescent, side channel, single point]"}, {"smiles": "CC(C)(C)n1cnc2cc(NCc3ccc(Br)cc3)ccc21", "Potency": "inconclusive: 3.55 µM [inhibitor, full curve, poor fit]"}, {"smiles": "COc1ccc(C)cc1NC(=O)Nc1ccccc1", "Potency": "inconclusive: 14.1 µM [quencher, side channel, single point]"}, {"smiles": "COc1cc(/C=N/NS(=O)(=O)c2ccc(C)c([N+](=O)[O-])c2)ccc1O", "Potency": "inactive"}, {"smiles": "Cc1cccc2cc(CN(Cc3cccs3)C(=S)NCc3ccco3)c(=O)[nH]c12", "Potency": "inconclusive: 28.2 µM [inhibitor, single point]"}, {"smiles": "Oc1ccc(-c2nc(-c3ccc(O)c(O)c3)cs2)cc1", "Potency": "inconclusive: 17.8 µM [quencher, side channel, partial curve]"}, {"smiles": "Cc1c(C)n(Cc2ccc(F)cc2)c2ccc(C(=O)N3CCN(c4ccccn4)CC3)cc12", "Potency": "inconclusive: 12.6 µM [fluorescent, side channel, partial curve]"}, {"smiles": "CCOC(=O)c1cc(N)cc([N+](=O)[O-])c1", "Potency": "inactive"}, {"smiles": "COc1ccc(C)cc1NC(=O)CCN1CCN(C/C=C/c2ccccc2)CC1", "Potency": "inconclusive: 15.8 µM [inhibitor, partial curve]"}, {"smiles": "CCn1c(CC(=O)Nc2ccccc2)nnc1SCC(=O)NC1CCCC1", "Potency": "inactive"}, {"smiles": "Cc1oc2c(c1C(=O)c1ccccc1)C(=O)C(=O)c1ccccc1-2", "Potency": "inconclusive: 39.8 µM [inhibitor, single point]"}, {"smiles": "COc1ccc(CN2CCC(CO)(CCOc3ccccc3)CC2)cc1C", "Potency": "inconclusive: 1.41 µM [fluorescent, side channel, partial curve, poor fit]"}, {"smiles": "N#CCCn1c2ccccc2c2nc3ccccc3nc21", "Potency": "inconclusive: 31.6 µM [inhibitor, single point]"}, {"smiles": "OC1CCN(c2cc(-c3ccccc3)nc3cc(-c4ccc(F)cc4)nn23)CC1", "Potency": "inconclusive: 7.94 µM [quencher, side channel, full curve]"}, {"smiles": "COc1cc2c(cc1OC)C(C(=O)Nc1ccc3c(c1)OCCO3)C1c3ccccc3CCN1C2=O", "note": "(configuration not stated)", "Potency": "inconclusive: 5.01 µM [inhibitor, single point]"}, {"smiles": "Cc1ccc(-c2cc(NC(=O)c3ccccc3[N+](=O)[O-])n[nH]2)cc1", "Potency": "inconclusive: 17.8 µM [quencher, side channel, partial curve]"}, {"smiles": "Cc1cc([N+](=O)[O-])c2[nH]c(C(=O)N/N=C/c3ccccc3C(=O)O)c(-c3ccccc3)c2c1", "Potency": "inconclusive: 10 µM [quencher, side channel, partial curve]"}, {"smiles": "COc1cc2ccccc2cc1C(=O)N1CCN(c2ccccn2)CC1", "Potency": "inconclusive: 14.1 µM [fluorescent, side channel, partial curve]"}, {"smiles": "CCCC1=NN2C(=N)/C(=C\\c3ccc(OCCOc4ccc(NC(C)=O)cc4)c(OC)c3)C(=O)N=C2S1", "Potency": "inconclusive: 31.6 µM [quencher, single point]"}]}]}
